Patent US20250340562A1, “CHROMANE IMAGING LIGANDS” (The General Hospital Corporation, priority 2021, published 2025)
Values belong to the compound of their own block, whether it stands above or below them.

What was measured:
rat plasma stability = type: in vitro ADME; details: remaining at 60 min vs 0 min, 37° C.
Protocol: Rat plasma stability. The rat plasma stability was determined by our previously described method. Briefly, the test compound (2.5 μL, 1 mM DMSO stock solution) was mixed with an aliquot of rat serum (100 μL, Abcam, Inc.) in an Eppendorf tube. The tube was vortexed and incubated at 37° C. for 0 min and 60 min, separately, before the addition of 250 μL ice-cold acetonitrile. The resulting mixture was centrifuged at 10,000 g for 20 min and the supernatant was collected for analysis on the HPLC system (UltiMate 3000). The same analytical conditions were used as those in the Log D7.4 assay. The plasma stability value was expressed as (peak area at 60 min)/(peak area at 0 min)×100%. The assay was repeated at least three times for each compound. Compound 24 was used as internal standard.

[1] = rat liver microsome stability; type: in vitro ADME, Sprague-Dawley rat; details: remaining at 60 min vs 0 min, NADPH, 37° C.
Protocol: Rat liver microsome stability. The rat liver microsome stability was measured by our previously described method. Briefly, 1.5 μL of 1 mM compound solution in DMSO was added to an Eppendorf tube containing 432 μL of PBS buffer. The tube was kept at 37° C. for 10 min before a 13 μL aliquot of the Sprague-Dawley rat liver microsome (Sigma-Aldrich, No. M9066) was added. The tube was vortexed before shaken at 37° C. for 5 min. The NADPH (50 μL, 10 mM in PBS solution) was added and the resulting mixture was incubated at 37° C. for 0 min and 60 min, separately, before the addition of 250 μL of ice-cold acetonitrile. The mixture was centrifuged at 10,000 g for 20 min and supernatant was collected for analysis on the HPLC system (UltiMate 3000). The same analytical conditions were employed as those in the Log D7.4 assay. The liver microsome stability value was expressed as (peak area at 60 min)/(peak area at 0 min)×100%. The assay was repeated at least three times for each compound. Compound 24 was used as internal standard and N-(4-chloro-3-methoxyphenyl)pyridine-2-carboxamide (ML128) was employed as positive control.

group II mGluRs = details: literature value; read-out: IC50 (group II NAM); cited from earlier work
mGluR2 [2] = target: T1, mGluR2 (Rattus norvegicus, UniProt P31421); test: PET imaging of [11C]13 in rats, pretreatment (blocking) studies; details: for decrease of radioactivity accumulation, average across ROIs: blocking agent iv 1 min before [11C]13
mGluR2 [3] = target: T1, mGluR2; parameters: host or cells: rat brain in vivo; details: rat brain, earlier tracers; cited from earlier work
mGluR2 [4] = target: T2, mGluR2 (Mus musculus, UniProt Q14BI2); test: PET imaging of [18F]mG2N002 in Alzheimer's mouse model; type: in vivo, 3xTg-AD and control mice (129/C57BL6); details: mice, 120 μCi iv
T2 construct: from tissue; host or cells: mouse brain in vivo
Protocol: FIG. 12A Distribution of [^18F]mG2N002 in the brain of 10 months old male 3xTg-AD and control mice. The images show an accumulation of [^18F]mG2N002 at the time window of 2-20 min after injection of the radioactivity (120 μCi in 0.05 ml) into the tail vein. […] Axial and sagittal views clearly show the difference between accumulation in different brain areas in AD and control mice.
FIG. 12B Preliminary studies of the binding distribution of [^18F]mG2N002 in female and male 3xTg-AD and control mice. […] Additionally, uptake in male AD mice was lower than in control.
Animal compliance, PET imaging protocol, and image analysis are the same as the ones described in Yuan, G. et al. J. Med. Chem. 2022, 65(3), 2593-2609 under the sections of “Animal Procedures” and “PET imaging studies in rats”, except the animal model (i.e., mouse) and the amount of injected radioactivity (i.e., 120 μCi in 0.05 ml for each mouse). Animal model: 10-month-old male and female 3xTg-AD and control mice (129/C57BL6).

[5] = 1 min before tracer, highest decrease
[6] = 1 min before tracer, least decrease

T1 sequence (P31421 19-872): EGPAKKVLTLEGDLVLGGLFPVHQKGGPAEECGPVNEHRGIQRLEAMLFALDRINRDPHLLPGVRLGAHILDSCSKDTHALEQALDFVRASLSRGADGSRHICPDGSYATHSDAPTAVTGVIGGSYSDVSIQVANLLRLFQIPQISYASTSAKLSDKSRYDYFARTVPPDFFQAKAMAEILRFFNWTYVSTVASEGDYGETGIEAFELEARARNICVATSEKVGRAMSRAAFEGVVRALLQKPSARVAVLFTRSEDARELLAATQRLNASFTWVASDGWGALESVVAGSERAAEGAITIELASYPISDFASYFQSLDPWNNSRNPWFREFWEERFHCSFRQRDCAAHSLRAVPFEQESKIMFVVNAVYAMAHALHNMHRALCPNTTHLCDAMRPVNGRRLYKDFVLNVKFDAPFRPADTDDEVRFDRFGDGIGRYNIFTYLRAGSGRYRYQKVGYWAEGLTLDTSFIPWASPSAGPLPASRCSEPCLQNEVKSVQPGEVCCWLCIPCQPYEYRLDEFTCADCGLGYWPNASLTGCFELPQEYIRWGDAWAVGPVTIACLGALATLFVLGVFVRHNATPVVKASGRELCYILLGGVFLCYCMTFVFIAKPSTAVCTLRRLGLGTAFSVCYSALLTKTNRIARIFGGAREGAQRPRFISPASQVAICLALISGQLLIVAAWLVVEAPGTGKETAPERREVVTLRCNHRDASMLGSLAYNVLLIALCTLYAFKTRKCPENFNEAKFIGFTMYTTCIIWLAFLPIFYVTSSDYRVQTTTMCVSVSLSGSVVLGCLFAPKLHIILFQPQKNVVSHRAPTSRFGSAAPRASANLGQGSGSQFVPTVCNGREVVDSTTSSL
T2 sequence (Q14BI2 19-872): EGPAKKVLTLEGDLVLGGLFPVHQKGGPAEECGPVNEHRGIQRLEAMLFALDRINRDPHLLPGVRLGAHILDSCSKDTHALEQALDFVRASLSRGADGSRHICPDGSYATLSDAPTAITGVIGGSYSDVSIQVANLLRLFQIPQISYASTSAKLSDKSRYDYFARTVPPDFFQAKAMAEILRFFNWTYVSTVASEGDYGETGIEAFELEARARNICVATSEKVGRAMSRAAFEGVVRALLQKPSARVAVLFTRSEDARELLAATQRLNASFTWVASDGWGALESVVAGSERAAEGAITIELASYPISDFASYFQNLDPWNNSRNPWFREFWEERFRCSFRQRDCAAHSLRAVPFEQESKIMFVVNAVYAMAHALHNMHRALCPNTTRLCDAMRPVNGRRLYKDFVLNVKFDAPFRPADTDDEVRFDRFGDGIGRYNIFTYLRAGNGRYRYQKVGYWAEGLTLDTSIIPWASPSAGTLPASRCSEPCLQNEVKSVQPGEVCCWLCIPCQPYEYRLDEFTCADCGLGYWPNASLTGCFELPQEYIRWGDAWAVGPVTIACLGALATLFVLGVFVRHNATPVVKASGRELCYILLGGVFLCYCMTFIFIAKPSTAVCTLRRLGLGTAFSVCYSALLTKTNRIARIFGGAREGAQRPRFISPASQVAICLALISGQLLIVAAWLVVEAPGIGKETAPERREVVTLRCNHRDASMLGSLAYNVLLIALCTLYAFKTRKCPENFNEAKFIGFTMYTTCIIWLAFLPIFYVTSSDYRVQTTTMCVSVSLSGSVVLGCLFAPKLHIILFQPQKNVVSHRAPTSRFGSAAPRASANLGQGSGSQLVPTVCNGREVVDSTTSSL

- rat plasma stability (rat plasma stability): > 92%
- rat liver microsome stability [1]: > 92%
SMILES: CC1(C)CCc2c(-c3ccc(F)cc3F)cc(C(N)=O)nc2O1 [Compound 12, 5-(2,4-difluorophenyl)-2,2-dimethyl-3,4-dihydro-2H-pyrano[2,3-b]pyridine-7-carboxamide]

SMILES: N#Cc1cc(C2=Nc3ccc(Br)cc3NC(=O)C2)ccn1 [MNI-137]
- IC50 (group II mGluRs): 8.3 nM
- decrease of radioactivity accumulation, hypothalamus (mGluR2 [2]; [5]): 42.6%
- decrease of radioactivity accumulation, cerebellum (mGluR2 [2]; [6]): 39.6%
- decrease of radioactivity accumulation, average across ROIs (mGluR2 [2]; 9 0.5 mg/kg, 26 0.2 mg/kg): 41.7±1.1%
- decrease of radioactivity accumulation, total average (mGluR2 [2]; blocking agent iv 20 min before [11C]13, 9 0.5 mg/kg, 26 0.2 mg/kg): 12.7±1.7%

SMILES: Cn1ccc(COc2cnc(C(N)=O)cc2-c2ccc(F)cc2)n1 [VU6001966]
- decrease of radioactivity accumulation, cortex (mGluR2 [2]; [5]): 38.5%
- decrease of radioactivity accumulation, thalamus (mGluR2 [2]; [6]): 17.1%
- decrease of radioactivity accumulation, average across ROIs (mGluR2 [2]; 9 0.5 mg/kg, 26 0.2 mg/kg): 22.4±7.3%

SMILES: COc1ccc(-c2cc(Cl)nc3c2CC(C)(C)CO3)c(F)c1 [[^11C]MG-1904]
- SUVmax (mGluR2 [3]): 1.7

- brain permeability (mGluR2 [4]): excellent brain permeability
SMILES: CC1(C)CCc2c(-c3ccc([18F])cc3F)cc(C(N)=O)nc2O1 [[^18F]mG2N002, S-(2-fluoro-4-[^18F]fluorophenyl)-2,2-dimethyl-3,4-dihydro-2H-pyrano[2,3-b]pyridine-7-carboxamide]
